The structures appear in SMILES notation. Values joined by “and” are separate entries in the source; they are usually repeats but may differ in a detail not shown here. Equal entries are not always repeated. Hit rate of the full screen: of about 48,000 compounds, about 1,200 (2.5%) were called active. Not shown: some 2% with an inconclusive outcome.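 Rule for the calls: active = activation of at least 60% and not above a set upper limit (about 1 call in 100 departs from these limits); inconclusive = activation of 40% to 60%, or above that upper limit; inactive = activation under 40%.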 This is one part of the list.

The assay addresses Probable G-protein coupled receptor 32 (Homo sapiens) (UniProt O75388). The assay is described as follows: qHTS for Agonists of Human Resolvin D1 Receptor DRV1. Note: 0% is about no effect. The settings on record: CHO-K1 GPR32 beta-arrestin PathHunter luminescence, 90 min; at 76.9 µM; hits give high values; zero percent set by DMSO-only wells. The method in brief: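 CHO-K1 cells stably expressing ProLink-tagged GPR32 and Enzyme Activator-tagged beta-arrestin were seeded at 2,500 cells/well overnight, exposed to compounds for 90 min at 37 °C, then read by beta-Gal complementation chemiluminescence after 1 h detection reagent.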
Sequence of UniProt O75388 (O75388 whole entry, looked up): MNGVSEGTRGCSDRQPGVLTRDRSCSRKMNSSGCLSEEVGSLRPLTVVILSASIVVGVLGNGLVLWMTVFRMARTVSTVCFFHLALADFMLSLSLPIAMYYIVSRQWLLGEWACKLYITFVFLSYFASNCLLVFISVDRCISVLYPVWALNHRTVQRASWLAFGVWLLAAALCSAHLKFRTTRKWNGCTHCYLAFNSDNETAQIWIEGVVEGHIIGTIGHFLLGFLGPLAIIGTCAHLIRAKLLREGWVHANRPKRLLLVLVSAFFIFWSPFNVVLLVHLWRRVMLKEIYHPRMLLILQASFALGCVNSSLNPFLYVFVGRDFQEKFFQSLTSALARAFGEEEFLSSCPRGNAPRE
For `COc1ccc(CNC(=O)CN(c2ccc(OC)cc2)S(=O)(=O)c2c(C)[nH]c(=O)[nH]c2=O)cc1`, the activation was inactive: -16.6%. Under `NS(=O)(=O)c1cc(C(=O)O)cc(N2CCCC2)c1Oc1ccccc1` stands inactive: 13.4%.

On to `O=C(CC1(O)C(=O)N(Cc2ccccc2)c2ccc(Br)cc21)c1ccccc1` (stereo not drawn), for which the activation is inactive: 43.7%. As for `CCOc1ccc(NC(=O)c2c(NC(=O)c3ccccc3Br)sc3c2CCC(C)C3)cc1` (stereo not drawn), the activation is inactive: -10.1%.

For `COc1ccc(OC)c(NC(=O)N(C)CCc2c(C)nn(C)c2C)c1`, the activation is inactive: -1.23%. Consider `CCC(=O)N1CCc2cc(Br)cc(S(=O)(=O)N(CC)Cc3ccccc3)c21`, for which the activation was inactive: 24.4%. The result for `CCOc1ccc(NC(=O)CC2C(=O)N(c3ccc(C)cc3)C(=O)N2Cc2ccc(OC)cc2)cc1` (stereo not drawn) reads inactive: -11%; that for `Cc1nc(-c2cccc(F)c2)sc1CCNC(=O)C(=O)Nc1ccc2c(c1)OCO2`, inactive: 34.8%. As for `CCc1cccc(C)c1NC(=O)c1cn2c3c(ccc(Cl)c3c1=O)OC(C)C2` (stereo not drawn), the activation was inactive: 14.8%. With `Cc1ccc(-c2nc3ncccc3o2)cc1NC(=O)c1ccc(-c2cccc(Cl)c2C)o1`, the activation is inactive: -5.85%. `COC(=O)CSc1ccc2nnc(CCNS(=O)(=O)c3ccccc3)n2n1`: the activation was inactive: -3.43%.

Consider `Cc1cc(-c2nc3ncccc3o2)ccc1NC(=O)c1ccc(Cl)cc1`, for which the activation was inactive: 1.58%. Take `CCOc1ccc(S(=O)(=O)NCC(c2ccc(N(C)C)cc2)N2CCc3ccccc32)cc1` (stereo not drawn): the activation is inactive: -23.6%. With `CCCCN(C)S(=O)(=O)c1cc(-c2cc(C)no2)ccc1C`, the activation is inactive: -23%. `Cc1cc(C)c2oc(C(=O)Nc3c(C(=O)Nc4ccccc4)oc4ccccc34)cc(=O)c2c1`: the activation is inactive: -17.3%. In the case of `CCCCn1cc(S(=O)(=O)c2ccc(Cl)cc2)c(=O)c2cc(F)c(N3CCCCC3)cc21`, the activation was inactive: -9.39%. The result for `Cn1c(SCc2ccc(F)cc2)nc2ccc(C(=O)NCc3ccccc3)cc21` reads inactive: 13.6%. The result for `COc1cc2c(-c3ccccc3Cl)nc3c(c(C)nn3-c3ccccc3)c2cc1OC` reads inactive: 9.74%; that for `Cc1cccc(C(=O)Nc2ccccc2C(=O)OCc2cc(=O)n3nc(C4CC4)sc3n2)c1`, inactive: -0.893%. The result for `CCOC(=O)c1c(-c2ccc(OC)c(OC)c2)csc1NC(=O)c1ccc(F)cc1` reads inactive: 25.4%; that for `COc1ccccc1CNC(=O)c1c(O)nc2cc(C)ccn2c1=O`, inactive: -3.68%; that for `Cc1nc2ccc(S(=O)(=O)NC(C(=O)NCc3ccc(Cl)cc3)C(C)C)cc2s1` (stereo not drawn), inactive: 4.13%.

For the molecule `NC(Cc1ccc(Cl)cc1)C(=O)O` (stereo not drawn), the activation is inactive: 9.04% and inactive: 10.6%. Regarding `CCc1ccc2occ(CC(=O)Nc3sc4c(c3C(=O)OC)CCC4)c2c1`, the activation is inactive: -18.3%. In the case of `O=C(C1CCN(c2nc3ccccc3[nH]2)CC1)N1CCN(c2cccc(Cl)c2)CC1`, the activation was inactive: -4.15%. As for `Cc1cc(C(C)(C)C)c(O)c(C)c1CC1=NCCN1`, the activation was inactive: -0.696% and inactive: -15.3%. On to `COc1cccc(N2C(=O)CSC23C(=O)N(CC(=O)NCc2ccc(C)cc2)c2ccccc23)c1` (stereo not drawn), for which the activation was inactive: -1.38%.

As for `CSC1=NC2(CCN(C(=O)NC3CCCCC3)CC2)N=C1c1ccc(C(C)(C)C)cc1`, the activation was inactive: -11.2%. On to `COc1cccc(CNCCSc2nnnn2C)c1OCc1ccc(Cl)cc1`, for which the activation was active: 116%.

As for `CCCN(CCC)CCCNC(=O)c1cn(CC)c2ccc(S(=O)(=O)N3CCc4ccccc4C3)cc2c1=O`, the activation was inactive: -5.93%. Consider `CCCCS(=N)(=O)CC[C@H](N)C(=O)O` (stereo partly drawn), for which the activation was inactive: 5.06%.

`CCOC(=O)c1ccc2c(c1)N(CC(=O)Nc1ccc(CC)cc1)C(=O)c1ccccc1S2`: the activation was inactive: -11.4%.

Consider `Cc1ccc(Nc2c(-c3ccc(N4CCOCC4)cc3)nc3ncccn23)cc1C`, for which the activation was inactive: -20.2%. As to `COc1cc(NC(=O)Cn2cnc3sc(C)c(S(=O)(=O)N4CCN(C)CC4)c3c2=O)cc(OC)c1OC`, the activation is inactive: -3.16%. In the case of `CCc1ccc(Cn2nnc(C(=O)Nc3ccc(C)cc3)c2N)cc1`, the activation is inactive: -0.999%. Turning to `CC(C)c1ccc(NC(=O)C2CCCN(S(=O)(=O)c3ccc4[nH]c(=O)ccc4c3)C2)cc1` (stereo not drawn), the activation was inactive: -8.46%. `CN(C)CCCN1c2ccccc2Sc2ccccc21`: the activation was inactive: -2.84% and inactive: -13.5%. The result for `O=C(CSc1oc(-c2ccco2)nc1S(=O)(=O)c1ccccc1)c1ccc(Cl)cc1` reads inactive: -11.2%; that for `CCOc1cccc(C(=O)Nc2ccc(NC(=O)c3ccc(Br)cc3)cc2)c1`, inactive: 1.07%.

Regarding `CCOC(=O)c1ccc(NC(=O)CC2C(=O)N(c3ccccc3)C(=O)N2C2CCCCC2)cc1` (stereo not drawn), the activation was inactive: -17.4%. As to `CCOC(=O)c1oc2ccc(S(=O)(=O)n3nc(-c4cc(OCC)c(OCC)c(OCC)c4)cc3N)cc2c1C`, the activation is inactive: -6.9%. On to `CCN(c1ccc(C)cc1C)S(=O)(=O)c1nnc(NC(=O)c2ccccc2OC)s1`, for which the activation is inactive: 15.7%. For `CC(C)CCNC(=O)CSc1nc2ccccc2nc1Cc1ccc(Cl)cc1`, the activation is inactive: -4.46%. For `CN(C)c1ccc(C(=O)NCc2ccc3c(c2)CCN3C(=O)c2ccccc2)cc1`, the activation is inactive: -34.4%. As to `COc1ccccc1CNC(=O)CS(=O)(=O)Cc1nc(-c2ccccc2C)oc1C`, the activation was inactive: 15.1%. As to `CSc1ccc(CNC(=O)Cn2ccc3cc(S(=O)(=O)N4CCCC4)ccc32)cc1`, the activation is inactive: 20.3%.

As to `Cc1cc(C)cc(NC(=O)CCN2C(=O)c3ccccc3Sc3ncccc32)c1`, the activation was inactive: -9.43%. In the case of `CC1CCN(c2nc(-c3ccc(Br)cc3)nc3ccccc23)CC1`, the activation was inactive: -13.6%.

As for `CN(C)c1ccc(CNC(=O)c2sc3ncccc3c2-n2cccc2)cc1`, the activation is inactive: -6.16%.

`CCN(c1ncnc2c1cnn2-c1cccc(Cl)c1)C1CCCCC1`: the activation was inactive: -3.86%.

As to `Cc1ccc(-c2cc(C(F)(F)F)c(C#N)c(SCC(=O)Nc3ccccc3F)n2)cc1`, the activation was inactive: -13.2%. Regarding `COc1cc(Cl)c(NS(=O)(=O)c2ccc(-c3coc(C)n3)cc2)c(OC)c1`, the activation is active: 82.6%. On to `CC1CCCCN1CCCNC(=O)Cn1ncc2c3ccccc3n(Cc3ccccc3F)c2c1=O` (stereo not drawn), for which the activation is inactive: 7.62%.

These data come from PubChem BioAssay AID1346428 (National Center for Advancing Translational Sciences (NCATS), 2018).
